The values that follow come from publication PMC4565672.

By UniProt entry, the sequences of proteins in these tests, tags left out.
UniProt Q96JN8: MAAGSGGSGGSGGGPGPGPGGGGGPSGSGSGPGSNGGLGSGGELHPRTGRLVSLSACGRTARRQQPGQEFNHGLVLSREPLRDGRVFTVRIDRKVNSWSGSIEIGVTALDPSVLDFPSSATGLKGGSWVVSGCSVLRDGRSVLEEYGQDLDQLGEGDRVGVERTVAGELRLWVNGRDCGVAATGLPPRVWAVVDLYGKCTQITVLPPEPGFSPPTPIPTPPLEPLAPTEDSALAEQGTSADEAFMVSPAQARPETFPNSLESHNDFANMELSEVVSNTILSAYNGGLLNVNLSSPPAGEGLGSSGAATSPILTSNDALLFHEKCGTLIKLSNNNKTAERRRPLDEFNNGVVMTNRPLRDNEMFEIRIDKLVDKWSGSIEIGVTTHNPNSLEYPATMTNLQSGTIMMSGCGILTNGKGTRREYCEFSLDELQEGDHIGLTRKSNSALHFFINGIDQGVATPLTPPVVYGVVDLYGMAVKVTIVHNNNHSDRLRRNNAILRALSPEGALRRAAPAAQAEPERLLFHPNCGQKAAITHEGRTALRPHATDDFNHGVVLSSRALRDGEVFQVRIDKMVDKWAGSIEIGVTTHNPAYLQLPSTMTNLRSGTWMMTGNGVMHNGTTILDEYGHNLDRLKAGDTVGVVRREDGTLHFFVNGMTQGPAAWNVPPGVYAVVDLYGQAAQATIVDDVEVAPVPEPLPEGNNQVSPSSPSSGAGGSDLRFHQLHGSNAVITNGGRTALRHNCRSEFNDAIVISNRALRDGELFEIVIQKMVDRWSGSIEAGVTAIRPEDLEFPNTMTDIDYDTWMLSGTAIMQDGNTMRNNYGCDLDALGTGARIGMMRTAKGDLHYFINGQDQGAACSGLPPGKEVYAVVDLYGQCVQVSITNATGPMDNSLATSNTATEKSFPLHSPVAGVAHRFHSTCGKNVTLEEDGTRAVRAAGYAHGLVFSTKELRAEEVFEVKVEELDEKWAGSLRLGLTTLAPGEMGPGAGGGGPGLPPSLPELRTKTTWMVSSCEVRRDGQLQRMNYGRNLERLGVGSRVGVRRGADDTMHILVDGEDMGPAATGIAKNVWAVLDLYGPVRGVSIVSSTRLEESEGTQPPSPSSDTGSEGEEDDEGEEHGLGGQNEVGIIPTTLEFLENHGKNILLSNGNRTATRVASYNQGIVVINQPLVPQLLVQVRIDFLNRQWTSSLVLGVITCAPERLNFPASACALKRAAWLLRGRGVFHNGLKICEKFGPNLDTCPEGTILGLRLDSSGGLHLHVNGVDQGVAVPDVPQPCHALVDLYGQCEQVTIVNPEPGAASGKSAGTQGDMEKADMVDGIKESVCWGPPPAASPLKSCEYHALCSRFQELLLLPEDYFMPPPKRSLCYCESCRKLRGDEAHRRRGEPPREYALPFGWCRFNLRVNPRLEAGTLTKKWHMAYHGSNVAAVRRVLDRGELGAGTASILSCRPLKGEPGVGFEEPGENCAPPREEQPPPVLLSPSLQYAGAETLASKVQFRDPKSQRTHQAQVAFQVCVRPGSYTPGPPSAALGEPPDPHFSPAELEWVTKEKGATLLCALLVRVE
UniProt O95714: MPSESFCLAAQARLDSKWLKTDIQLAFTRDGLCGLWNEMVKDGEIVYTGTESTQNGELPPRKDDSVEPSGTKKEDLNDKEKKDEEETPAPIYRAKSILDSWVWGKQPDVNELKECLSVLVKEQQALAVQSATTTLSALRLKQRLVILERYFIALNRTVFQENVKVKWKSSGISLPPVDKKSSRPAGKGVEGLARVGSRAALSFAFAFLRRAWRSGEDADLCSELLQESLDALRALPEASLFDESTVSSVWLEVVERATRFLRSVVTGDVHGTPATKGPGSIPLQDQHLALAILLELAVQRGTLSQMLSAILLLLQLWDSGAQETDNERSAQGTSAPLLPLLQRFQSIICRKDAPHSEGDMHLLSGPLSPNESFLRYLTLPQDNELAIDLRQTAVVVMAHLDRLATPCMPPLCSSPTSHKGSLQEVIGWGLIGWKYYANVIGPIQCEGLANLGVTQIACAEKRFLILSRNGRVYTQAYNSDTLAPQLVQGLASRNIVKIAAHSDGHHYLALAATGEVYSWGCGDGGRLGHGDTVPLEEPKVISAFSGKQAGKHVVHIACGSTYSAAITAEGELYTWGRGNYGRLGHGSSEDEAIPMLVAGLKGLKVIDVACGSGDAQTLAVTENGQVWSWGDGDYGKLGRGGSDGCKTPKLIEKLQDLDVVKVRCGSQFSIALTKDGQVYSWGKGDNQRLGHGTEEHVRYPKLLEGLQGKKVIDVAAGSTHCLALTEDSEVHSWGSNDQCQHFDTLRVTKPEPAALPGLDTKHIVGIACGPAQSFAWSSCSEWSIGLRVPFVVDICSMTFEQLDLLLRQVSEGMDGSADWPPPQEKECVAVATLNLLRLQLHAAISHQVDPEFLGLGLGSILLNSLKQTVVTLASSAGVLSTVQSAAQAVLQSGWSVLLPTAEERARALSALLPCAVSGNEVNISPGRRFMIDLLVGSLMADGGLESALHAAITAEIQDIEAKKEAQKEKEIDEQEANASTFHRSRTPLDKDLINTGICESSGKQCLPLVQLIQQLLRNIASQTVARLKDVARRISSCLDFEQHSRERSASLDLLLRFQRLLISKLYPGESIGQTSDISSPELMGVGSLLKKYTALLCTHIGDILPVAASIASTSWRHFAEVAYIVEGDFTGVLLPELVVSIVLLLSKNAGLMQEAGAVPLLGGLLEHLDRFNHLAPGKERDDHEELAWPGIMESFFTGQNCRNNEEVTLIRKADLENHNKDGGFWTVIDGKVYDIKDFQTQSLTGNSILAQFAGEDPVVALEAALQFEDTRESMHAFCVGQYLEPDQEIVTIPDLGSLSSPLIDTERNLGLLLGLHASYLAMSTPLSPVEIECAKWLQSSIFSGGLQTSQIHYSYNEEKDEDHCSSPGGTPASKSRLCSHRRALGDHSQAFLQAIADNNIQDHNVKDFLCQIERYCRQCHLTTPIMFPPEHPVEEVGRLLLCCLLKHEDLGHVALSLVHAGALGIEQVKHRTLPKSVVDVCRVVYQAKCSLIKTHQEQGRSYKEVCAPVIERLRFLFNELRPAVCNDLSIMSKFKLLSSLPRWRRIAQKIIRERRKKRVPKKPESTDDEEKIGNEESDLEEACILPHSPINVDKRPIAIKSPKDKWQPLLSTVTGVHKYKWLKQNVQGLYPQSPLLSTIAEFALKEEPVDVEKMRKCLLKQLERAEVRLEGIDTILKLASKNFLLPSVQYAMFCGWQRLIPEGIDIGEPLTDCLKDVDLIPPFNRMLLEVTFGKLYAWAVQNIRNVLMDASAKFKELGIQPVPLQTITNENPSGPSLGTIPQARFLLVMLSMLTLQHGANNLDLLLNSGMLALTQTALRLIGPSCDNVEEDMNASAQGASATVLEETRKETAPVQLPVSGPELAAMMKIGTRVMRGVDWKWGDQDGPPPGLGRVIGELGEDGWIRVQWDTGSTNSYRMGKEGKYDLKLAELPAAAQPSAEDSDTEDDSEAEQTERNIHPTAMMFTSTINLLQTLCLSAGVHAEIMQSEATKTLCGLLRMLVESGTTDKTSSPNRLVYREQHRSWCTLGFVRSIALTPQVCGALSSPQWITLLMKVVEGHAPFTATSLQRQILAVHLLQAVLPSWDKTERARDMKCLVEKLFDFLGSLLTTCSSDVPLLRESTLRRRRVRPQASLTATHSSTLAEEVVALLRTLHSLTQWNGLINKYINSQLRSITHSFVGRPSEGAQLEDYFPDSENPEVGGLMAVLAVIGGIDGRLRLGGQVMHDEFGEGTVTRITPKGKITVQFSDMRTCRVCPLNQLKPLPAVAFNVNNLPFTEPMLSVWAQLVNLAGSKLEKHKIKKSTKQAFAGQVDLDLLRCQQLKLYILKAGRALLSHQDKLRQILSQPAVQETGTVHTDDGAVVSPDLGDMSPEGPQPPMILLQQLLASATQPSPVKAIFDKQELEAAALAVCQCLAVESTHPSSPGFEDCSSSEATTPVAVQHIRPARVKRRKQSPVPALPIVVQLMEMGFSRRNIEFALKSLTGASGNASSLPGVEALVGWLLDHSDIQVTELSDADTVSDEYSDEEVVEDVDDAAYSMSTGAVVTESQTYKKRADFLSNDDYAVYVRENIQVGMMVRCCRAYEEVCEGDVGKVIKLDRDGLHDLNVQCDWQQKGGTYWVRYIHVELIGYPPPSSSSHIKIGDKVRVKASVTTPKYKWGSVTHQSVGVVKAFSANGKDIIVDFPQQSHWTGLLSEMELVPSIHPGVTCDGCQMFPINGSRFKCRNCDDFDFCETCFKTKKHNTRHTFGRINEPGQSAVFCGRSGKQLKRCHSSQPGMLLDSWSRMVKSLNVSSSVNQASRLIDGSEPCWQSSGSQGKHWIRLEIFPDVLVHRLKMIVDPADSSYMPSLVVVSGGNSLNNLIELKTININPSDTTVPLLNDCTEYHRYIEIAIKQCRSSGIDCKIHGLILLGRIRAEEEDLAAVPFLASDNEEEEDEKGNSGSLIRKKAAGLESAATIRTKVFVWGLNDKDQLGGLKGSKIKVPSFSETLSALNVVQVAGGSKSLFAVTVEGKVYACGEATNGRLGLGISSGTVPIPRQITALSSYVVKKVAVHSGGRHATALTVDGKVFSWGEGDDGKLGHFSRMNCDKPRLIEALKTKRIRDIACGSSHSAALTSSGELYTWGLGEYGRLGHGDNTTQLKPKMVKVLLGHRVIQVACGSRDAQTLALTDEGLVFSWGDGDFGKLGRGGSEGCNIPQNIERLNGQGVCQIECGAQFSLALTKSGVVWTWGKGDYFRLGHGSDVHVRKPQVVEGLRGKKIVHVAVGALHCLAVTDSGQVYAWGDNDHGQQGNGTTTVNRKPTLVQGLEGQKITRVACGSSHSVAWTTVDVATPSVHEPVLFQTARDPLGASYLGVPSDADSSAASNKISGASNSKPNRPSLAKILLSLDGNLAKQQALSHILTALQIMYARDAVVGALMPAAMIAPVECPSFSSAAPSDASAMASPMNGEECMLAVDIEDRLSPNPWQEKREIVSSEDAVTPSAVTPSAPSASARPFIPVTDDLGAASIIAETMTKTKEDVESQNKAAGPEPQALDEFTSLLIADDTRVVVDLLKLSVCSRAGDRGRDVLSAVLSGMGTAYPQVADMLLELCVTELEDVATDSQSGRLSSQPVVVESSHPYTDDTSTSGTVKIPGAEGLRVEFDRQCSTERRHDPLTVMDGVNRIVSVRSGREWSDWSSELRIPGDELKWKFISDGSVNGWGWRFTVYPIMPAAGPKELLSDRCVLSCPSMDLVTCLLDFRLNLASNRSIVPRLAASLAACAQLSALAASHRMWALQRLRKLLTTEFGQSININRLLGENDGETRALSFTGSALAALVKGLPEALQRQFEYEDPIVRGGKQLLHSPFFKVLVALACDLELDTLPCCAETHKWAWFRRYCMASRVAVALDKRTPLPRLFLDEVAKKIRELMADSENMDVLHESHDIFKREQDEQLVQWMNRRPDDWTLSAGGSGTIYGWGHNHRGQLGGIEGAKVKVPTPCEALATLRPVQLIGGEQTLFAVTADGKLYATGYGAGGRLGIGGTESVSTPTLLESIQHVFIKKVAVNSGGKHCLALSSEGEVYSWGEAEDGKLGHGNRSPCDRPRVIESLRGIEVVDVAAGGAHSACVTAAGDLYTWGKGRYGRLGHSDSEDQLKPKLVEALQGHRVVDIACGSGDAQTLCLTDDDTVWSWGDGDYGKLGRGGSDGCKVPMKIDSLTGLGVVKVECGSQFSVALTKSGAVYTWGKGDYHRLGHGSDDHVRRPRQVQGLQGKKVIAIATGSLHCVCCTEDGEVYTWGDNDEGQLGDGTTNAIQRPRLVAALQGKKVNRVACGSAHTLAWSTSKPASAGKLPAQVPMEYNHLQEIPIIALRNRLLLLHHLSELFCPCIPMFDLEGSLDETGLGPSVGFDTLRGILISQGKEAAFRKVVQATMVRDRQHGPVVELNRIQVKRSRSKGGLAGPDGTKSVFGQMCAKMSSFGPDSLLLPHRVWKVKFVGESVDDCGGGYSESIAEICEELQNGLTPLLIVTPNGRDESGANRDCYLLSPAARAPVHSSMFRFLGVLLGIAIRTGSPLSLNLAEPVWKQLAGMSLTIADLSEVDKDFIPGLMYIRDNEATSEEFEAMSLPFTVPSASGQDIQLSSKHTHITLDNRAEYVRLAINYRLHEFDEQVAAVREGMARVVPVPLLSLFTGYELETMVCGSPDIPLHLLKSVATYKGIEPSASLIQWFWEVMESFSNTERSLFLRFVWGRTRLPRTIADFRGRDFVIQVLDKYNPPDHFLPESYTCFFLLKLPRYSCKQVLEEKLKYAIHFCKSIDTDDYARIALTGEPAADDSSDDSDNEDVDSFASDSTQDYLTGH

Results are given in words; binding and its absence hold for the method and conditions named. Binding seen in cells or lysates may run through a third protein. Some binding calls cover weakened binding; strength is not graded here. For some of these results: Where a sequence is shown, tags or fusion partners need not be part of it.

In one experiment the target is T1, LKB1-FLAG (UniProt Q15831).
T1 sequence: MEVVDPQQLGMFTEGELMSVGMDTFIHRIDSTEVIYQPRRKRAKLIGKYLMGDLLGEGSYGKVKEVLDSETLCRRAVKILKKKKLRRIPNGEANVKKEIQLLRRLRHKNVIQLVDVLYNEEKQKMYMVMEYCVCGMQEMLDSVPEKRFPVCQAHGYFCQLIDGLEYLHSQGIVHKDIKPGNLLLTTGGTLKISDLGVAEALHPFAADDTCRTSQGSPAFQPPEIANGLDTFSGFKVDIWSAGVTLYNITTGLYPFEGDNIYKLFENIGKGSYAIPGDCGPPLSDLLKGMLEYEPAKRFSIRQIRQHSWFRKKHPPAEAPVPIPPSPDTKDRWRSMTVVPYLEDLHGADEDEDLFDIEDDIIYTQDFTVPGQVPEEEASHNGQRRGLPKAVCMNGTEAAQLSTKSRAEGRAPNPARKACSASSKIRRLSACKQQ
Put plainly: co-IP; HEK293T cells transfected with the indicated plasmids; RIPA buffer; anti-FLAG gel, 4°C for 3 h, five washes, eluted with 3x FLAG peptide; Western blotting. Background: Immunoblotting shows a protein as a band on a membrane.

Experiment [1] has as its target NEURL4 (transfected; tag not told for these experiments) (UniProt Q96JN8). The experiment is described as above.
The target of experiment [2] is Delta-like 1 (Dll1), rat (rat) (UniProt P97677). Described as above.
In experiment [3] the target is FLAG-tagged human LRRK2 (wild type) (human) (UniProt Q5S007). The description is as above.
For experiment [4], the target named is FLAG-LRRK2 G2019S (human) (UniProt Q5S007). Described as above.
Experiment [5] concerns the target FLAG-LRRK2 R1398L (human) (UniProt Q5S007). The experiment is described as above.
Experiment [6] concerns the target FLAG-LRRK2 R1441G (human) (UniProt Q5S007). The experiment is described as above.
Experiment [7] deals with FLAG-LRRK2 T1348N (human) (UniProt Q5S007). Described as above.
Experiment [8] concerns the target LRRK2 (endogenous, mouse brain) (mouse (endogenous in brain)) (UniProt Q5S006). Nature of the experiment: co-IP; mouse brain lysates; immunoprecipitation with anti-LRRK2 (control: anti-dFoxO); Western blotting of endogenous proteins.

Take “HERC2 (endogenous, HEK293 cells) (from UniProt O95714 1-4834)”: the binding result with LKB1-FLAG is reported as “no binding”; in [1] it was “binds”.
As for “HERC2 (transfected; tag not told) (from UniProt O95714 1-4834)”, in [2], the binding result was “binds”.
For the substance Myc-NEURL4 (from UniProt Q96JN8 1-1562), the binding result in experiment [3] is listed as “binds”.
Consider “NEURL4 (endogenous, HEK293 cells) (from UniProt Q96JN8 1-1562)”, for which the binding entry is given as “binds” in experiment [4]; “binds” in experiment [5]; “binds” in experiment [6]; “binds” in experiment [7]; “binds” in experiment [3]; “no binding” with LKB1-FLAG.
Consider “NEURL4 (endogenous, mouse brain) (from UniProt Q5NCX5 1-1563)”, for which, in [8], the binding entry is “binds”.
Consider “NEURL4 (transfected; tag not told for these experiments) (from UniProt Q96JN8 1-1562)”, for which the binding entry in experiment [2] and in experiment [3] was “binds” in each case.
